The values that follow come from paper PMC4336329 (PLoS ONE, 2015).

About 14,000 (4.5%) of roughly 310,000 compounds showed an effect of 50% or more. The effect is printed as a negative number. The list shows a part of the results.
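Further: peak tail current of the secondary pulse compared with the same well before compound.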

The target of the test is human ether-à-go-go-related gene (hERG) potassium channel (human, UniProt Q12809). The experiment in a line: primary screen, population patch clamp on CHO cells stably expressing hERG.
Sequence of human ether-à-go-go-related gene (hERG) potassium channel (Q12809 whole entry, looked up): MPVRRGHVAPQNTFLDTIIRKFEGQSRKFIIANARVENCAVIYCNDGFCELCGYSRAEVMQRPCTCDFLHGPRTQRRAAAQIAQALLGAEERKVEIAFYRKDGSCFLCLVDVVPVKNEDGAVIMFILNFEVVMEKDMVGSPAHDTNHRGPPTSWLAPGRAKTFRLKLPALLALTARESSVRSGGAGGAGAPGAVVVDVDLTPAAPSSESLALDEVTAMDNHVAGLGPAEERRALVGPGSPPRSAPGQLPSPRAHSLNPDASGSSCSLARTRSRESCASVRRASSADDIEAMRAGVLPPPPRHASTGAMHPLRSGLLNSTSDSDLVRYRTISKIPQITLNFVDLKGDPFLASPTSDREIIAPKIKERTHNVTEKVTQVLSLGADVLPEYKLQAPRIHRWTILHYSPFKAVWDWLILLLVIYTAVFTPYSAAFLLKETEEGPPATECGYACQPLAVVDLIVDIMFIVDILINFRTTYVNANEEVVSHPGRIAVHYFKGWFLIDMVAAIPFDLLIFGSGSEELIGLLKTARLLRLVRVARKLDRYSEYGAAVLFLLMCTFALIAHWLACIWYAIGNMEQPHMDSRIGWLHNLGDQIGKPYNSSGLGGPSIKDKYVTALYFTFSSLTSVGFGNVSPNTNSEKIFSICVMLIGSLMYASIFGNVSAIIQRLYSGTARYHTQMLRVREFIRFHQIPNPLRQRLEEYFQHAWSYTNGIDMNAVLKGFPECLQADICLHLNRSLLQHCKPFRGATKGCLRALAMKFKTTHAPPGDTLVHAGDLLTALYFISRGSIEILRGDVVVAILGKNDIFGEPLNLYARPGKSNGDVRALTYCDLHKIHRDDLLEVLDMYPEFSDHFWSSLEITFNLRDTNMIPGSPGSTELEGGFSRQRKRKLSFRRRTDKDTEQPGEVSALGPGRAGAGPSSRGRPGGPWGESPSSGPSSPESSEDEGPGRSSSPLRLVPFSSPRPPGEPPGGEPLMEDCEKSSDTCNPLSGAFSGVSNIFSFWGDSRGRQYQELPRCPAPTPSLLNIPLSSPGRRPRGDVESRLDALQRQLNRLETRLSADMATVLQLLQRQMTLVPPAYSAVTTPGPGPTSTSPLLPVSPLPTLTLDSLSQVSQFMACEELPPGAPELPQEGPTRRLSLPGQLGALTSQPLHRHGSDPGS
`O=C(NC1CCCCC1)c1cc(-c2ccccc2O)on1`: the “hERG current change (%, negative = inhibition) at 10uM” value is recorded as 4.01%.

On to `CCc1nnc(NC(=O)CSc2nc3c(c(=O)n2-c2ccccc2OC)SCC3)s1`, for which the “hERG current change (%, negative = inhibition) at 10uM” value is 1.46%. Take `CC(C)CN(C(=O)Cn1c(Cl)nc2c1c(=O)n(C)c(=O)n2C)C1CCS(=O)(=O)C1` (centres unmarked): the “hERG current change (%, negative = inhibition) at 10uM” value is on record as -11.1%. The result for `O=C(OCCCN=C1NS(=O)(=O)c2ccccc21)c1ccccc1` reads -8.79%; that for `CC1(C)CC(=O)C2=C(C1)OC1=C(C2)C(=O)CC(C)(C)C1`, -16.3%.

`Clc1ccc(CSc2ncn[nH]2)cc1`: the “hERG current change (%, negative = inhibition) at 10uM” value is -0.0684%. For the compound `CCCNC(=O)c1cccc(NC(=O)C(C)C)c1`, the “hERG current change (%, negative = inhibition) at 10uM” value is -25.4%. For `NC1=NN=C(N2N=C(c3ccccc3)CC2(O)C(F)(F)F)n2ncnc2C1` (centres unmarked) the value was -34.2%; for `Cc1ccccc1NC(=O)CCc1c(C)nn(-c2ccc(N3CCCCC3)nn2)c1C`, -3.03%. For `Cc1cccc(OCCn2c(-c3ccco3)nc3ccccc32)c1` the value was 5.1%; for `O=C(CSCC(=O)N1CCCc2ccccc21)Nc1nc(-c2ccccc2)cs1`, 12.4%. The result for `O=C(COc1ccc2ccc(=O)oc2c1)NC1CCCCC1` reads 1.43%; that for `Cc1ccc(NC(=S)N2CCC(NC(=O)c3ccc(F)cc3)CC2)cc1`, -1.76%; that for `COc1ccc(CN2CCC(=O)N([C@H](CO)c3ccccc3)CC2)cc1`, 13.3%. With `O=C(O)CSc1nnc(-c2cccc(S(=O)(=O)N3CCOCC3)c2)n1-c1cccc(Cl)c1`, the “hERG current change (%, negative = inhibition) at 10uM” value worked out at 12.2%. As for `Cc1ccn2c(=O)nc(SCC(=O)Nc3cccc4ccccc34)nc2c1`, the “hERG current change (%, negative = inhibition) at 10uM” value is -27.5%. The result for `Cc1ccccc1NS(=O)(=O)c1csc(C(N)=O)c1` reads 23.7%; that for `O=[N+]([O-])c1ccc(OCCCOc2cccc3cccnc23)cc1`, -18.1%; that for `COc1cccc([C@@H]2CC=C(C(=O)O)[C@H](c3ccc(Cl)cc3)N2S(=O)(=O)c2ccc(C)cc2)c1`, -3.21%.

As for `O=C(CSc1nc2ccccc2c(=O)[nH]1)Nc1ccc(N2CCOCC2)cc1`, the “hERG current change (%, negative = inhibition) at 10uM” value is reported as 2.05%.

Take `Cc1cc(NC(=O)C2CCCN(S(=O)(=O)c3cnc[nH]3)C2)ccc1Br` (centres unmarked): the “hERG current change (%, negative = inhibition) at 10uM” value was found to be 15.4%. The result for `O=S(=O)(c1ccc2ccccc2c1)N1CCc2ccccc21` reads 4.44%. As to `CC(C)(C)OC(=O)N1CCC[C@H]1C(=O)N/N=C/c1cccc2cccnc12`, the “hERG current change (%, negative = inhibition) at 10uM” value was 6.67%. For `CC(CCc1ccccc1)NC(=O)c1ccc(Cl)nc1` (centres unmarked) the value was -23.6%; for `OCCNc1ccc(Cl)cc1`, 10.4%. Consider `NC(=O)C[C@@H]1NC(=O)[C@H](CCC(=O)O)NC(=O)c2cc([N+](=O)[O-])cc(I)c2OCC[C@@H](C(N)=O)NC1=O`, for which the “hERG current change (%, negative = inhibition) at 10uM” value worked out at 13.1%. In the case of `COc1ccc(NC(=O)CCn2nnc(-c3ccc(C)cc3)n2)cc1OC`, the “hERG current change (%, negative = inhibition) at 10uM” value is given as 9.3%. For `Cc1ccc(C)c(NC(=O)CSc2n[nH]c(-c3ccccn3)n2)c1` the value was 10.8%; for `Cc1cccc(C(=O)Nc2nnc(S(=O)(=O)N3CCC(C)CC3)s2)c1`, 13.5%; for `CCN(CC(=O)NCc1cccs1)S(=O)(=O)c1cc(NC(C)=O)ccc1OC`, -11.8%. For `COc1ccc(C2CC(=O)c3cnn(-c4nc(C)cc(C)n4)c3C2)cc1` (centres unmarked), the “hERG current change (%, negative = inhibition) at 10uM” value is -11.6%. For `Cc1ccc(C2/C(=C(/O)c3cnn(-c4ccccc4)c3C)C(=O)C(=O)N2CCN2CCOCC2)o1` (centres unmarked) the value was 6.7%; for `CC1CCCCC1NC(=O)Cn1cc([N+](=O)[O-])ccc1=O` (centres unmarked), 7.67%.

Take `C/C(=N\O)C(C)(C)Nc1cccc(F)c1`: the “hERG current change (%, negative = inhibition) at 10uM” value turned out to be 12.7%. Turning to `CCOC(=O)N1CCN(CC(=O)Nc2c(C(=O)OC)[nH]c3cccc(Cl)c23)CC1`, the “hERG current change (%, negative = inhibition) at 10uM” value is 17%.

Turning to `CC(=O)c1cc(CN2CCN(C3CCCCC3)C(CCO)C2)cs1` (centres unmarked), the “hERG current change (%, negative = inhibition) at 10uM” value is -17.2%. The result for `S=C(NCc1ccccn1)Nc1ccc(Br)cc1Cl` reads 26.2%. The result for `O=C(c1c(Cl)nc2sccn12)N1CCN(c2cccc(Cl)c2)CC1` reads -37.9%. The result for `Oc1ccccc1-n1nc2ccc3nonc3c2n1` reads 24.4%. As to `CCNS(=O)(=O)c1ccc(CCC(=O)Nc2cc(Cl)ccc2Oc2ccccc2)cc1`, the “hERG current change (%, negative = inhibition) at 10uM” value is -14.9%. For `C=CCOc1cccc(C2C(C(=O)c3ccc(C)o3)=C(O)C(=O)N2c2nnc(C)s2)c1` (centres unmarked) the value was -2.99%; for `C(=N\Nc1nc(-c2ccccn2)nc2ccccc12)/c1ccccc1`, 12.3%. The result for `COC(=O)C1=C(C)OC(N)=C(C#N)C1c1ccc(OC)c(OC)c1OC` (centres unmarked) reads -8.57%. Consider `COc1ccc(-c2nc3n(c(=O)c2C#N)CCS3)cc1`, for which the “hERG current change (%, negative = inhibition) at 10uM” value is listed as -8.79%. With `Cc1ccc(CNC(=O)CN(Cc2cccs2)C(=O)C2(C)CC(=O)N=C3C=CC=CN32)cc1` (centres unmarked), the “hERG current change (%, negative = inhibition) at 10uM” value came to 16.3%. The result for `O=C1c2cccc3cccc(c23)C(=O)N1c1nncs1` reads 0.491%; that for `COCCn1c(=S)[nH]c2cc(C(=O)N3CC(C)CC(C)C3)ccc2c1=O` (centres unmarked), 20.2%; that for `CC1(c2nnc(-c3ccccc3)o2)CC(c2ccc(Cl)cc2)=NO1` (centres unmarked), -2.27%. For `Cc1ccc(S(=O)(=O)Oc2ccc(/C=C(/NC(=O)c3ccccc3)C(=O)NCCC(=O)O)cc2)cc1` the value was 6.29%; for `Cc1ccc(O)c(CNn2cnnc2)c1`, -4.63%; for `O=c1oc2ccccc2cc1-c1cn(-c2ccccc2)c(=S)[nH]1`, 12.5%. For `Cc1cccc(C)c1NC(=O)C1(N(Cc2ccco2)C(=O)c2ccccn2)CCCC1` the value was 5.95%; for `CCOC(=O)Cc1csc(NC(=O)CN2CCN(CC)CC2)n1`, 15.8%. For the compound `CN(CC(=O)Nc1ccccc1Cl)C(=O)c1ccccc1SCC(=O)N1CCCC1`, the “hERG current change (%, negative = inhibition) at 10uM” value was -10.5%. The result for `COc1cc(C(c2c(C(=O)O)[nH]c3ccccc23)c2c(C(=O)O)[nH]c3ccccc23)ccc1OCc1ccccc1` reads 8.82%; that for `CCN1/C(=C/C=C/C=C/c2sc3ccccc3[n+]2CC)Sc2ccccc21.[I-]`, -78.9%. For `O=C(O)C1CCN(C(=O)c2ccc(Cl)cc2)CC1` the value was 12.4%. For the compound `CC(=O)N(C)c1ccc(NC(=O)C(Sc2ccccc2)c2ccccc2)cc1` (centres unmarked), the “hERG current change (%, negative = inhibition) at 10uM” value is -14.4%.

Turning to `COCc1ccc(C(=O)NC2CC(C)(C)Cc3c2cnn3-c2ccc(OC)cc2)o1` (centres unmarked), the “hERG current change (%, negative = inhibition) at 10uM” value is reported as -29.3%. For `CC(=O)c1c(C(C)=O)c(C)n(-c2cccc3cccnc23)c1C`, the “hERG current change (%, negative = inhibition) at 10uM” value was determined as 10.9%. With `Cc1c(C(=O)N2CCN(Cc3ccccc3)CC2)oc2c1C(=O)CCC2`, the “hERG current change (%, negative = inhibition) at 10uM” value is reported as 0.625%. The result for `COC(=O)[C@@H](NCc1cccc(CN([C@H](C(=O)OC)C(C)C)S(C)(=O)=O)c1)C(C)C` reads 1.31%; that for `CCOC(=O)c1c(NC(=O)CSc2nnc3c(n2)[nH]c2ccc(F)cc23)sc(C(C)=O)c1C`, 9.12%; that for `Cc1cc(=O)[nH]c(SCC(=O)N2CCCCCC2)n1`, 13.1%.

For the compound `Cc1cccc(CSCC(=O)NCc2ccc(S(N)(=O)=O)cc2)c1`, the “hERG current change (%, negative = inhibition) at 10uM” value was 21.4%. For `CC1(C)CC2CC(C)(CN2Cc2cccc([N+](=O)[O-])c2)C1` (centres unmarked) the value was 16.7%; for `Cn1c2c(c(=O)n3ncnc13)CCCC2`, 13.1%; for `Cc1ccc(N(CC(=O)NCc2ccco2)C(=O)CNS(=O)(=O)c2ccc(F)cc2)c(C)c1`, -15%. For the compound `COc1ccccc1OCc1cc(C(=O)N2CCN(C)C(c3ccccc3)C2)no1` (centres unmarked), the “hERG current change (%, negative = inhibition) at 10uM” value is given as -61.1%.

In the case of `COC(=O)CNC(=O)CCCCC(=O)NCC(=O)OC`, the “hERG current change (%, negative = inhibition) at 10uM” value amounted to 19.7%.

With `COc1ccc(Cc2nnc(Cl)c3ccccc23)cc1OC`, the “hERG current change (%, negative = inhibition) at 10uM” value was 14.9%.

Take `COc1cc(NS(=O)(=O)c2cc(C)ccc2OC)c(OC)cc1Cl`: the “hERG current change (%, negative = inhibition) at 10uM” value worked out at 7.42%. For `COC(=O)C(C)N(C(=O)c1ccc(Cl)cc1)c1c(C)cccc1C` (centres unmarked), the “hERG current change (%, negative = inhibition) at 10uM” value is given as -15.2%. For `CCCC(=O)NCCCc1nc2ccccc2n1CCC` the value was -9.27%; for `O=C(NCCCN1CCCCC1)C1(S(=O)(=O)c2ccc(Cl)cc2)CC1`, -32.3%. For `COc1ccc(C(=O)C2CCCN(C(=O)c3ccnn3C)C2)c(C)c1` (centres unmarked) the value was 2.47%; for `Cc1ccccc1Cn1c(NC2CCCC2)nc2c1c(=O)[nH]c(=O)n2C`, 10.9%; for `CN(C)C(=O)c1ccc(NC(=O)COC(=O)C2CCN(S(=O)(=O)c3ccc4c(c3)OCCO4)CC2)cc1`, 5.95%.

For `COc1ccc(CCN(Cc2cccs2)S(=O)(=O)c2ccc(S(=O)(=O)N3CCCCCC3)cc2)cc1OC`, the “hERG current change (%, negative = inhibition) at 10uM” value amounted to 1.8%. For `CC(=O)c1ccc(NC(=O)/C=C/c2ccc(C)cc2)cc1` the value was -2.45%; for `O=C(CSc1nnc(-c2ccco2)n1-c1ccccc1)NCc1ccc2c(c1)OCO2`, -73.4%. The result for `CC(=O)c1ccc(NC(=O)C(C)n2nc(-c3ccccc3)c3cc(Cl)ccc32)cc1` (centres unmarked) reads -2.26%; that for `C=C[C@H]1CN2CC[C@H]1C[C@@H]2[C@@H](O)c1ccnc2ccccc12`, -57.1%. Turning to `CC(C)Cc1nc2oc3c(=O)[nH]cnc3c2c2c1CCC2`, the “hERG current change (%, negative = inhibition) at 10uM” value is -7.29%. The result for `COc1ccc(OC)c(/C=C/C(=O)c2ccc3c(c2)OCCO3)c1` reads 5.09%; that for `COc1ccc(NS(=O)(=O)c2cccc(C(=O)NNC(=O)CNC(=O)c3cccc(C)c3)c2)cc1`, -5.66%.
